In a collection of fitness landscapes (doi:10.1038/s41467-024-54723-y):
In all, about 18,000 sequences were measured (“TetR repression strength (sort-seq, GFP reporter)”: median about 0.23, highest 2% from about 0.68 on). This is one part of the list.

molecular target: TetR (class B, Tn10) (UniProt P04483); assay: TetR repression strength (sort-seq, GFP reporter) (relative to tetO2 = 1); higher = stronger repression; conditions: E. coli
How it was run: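 E. coli SIG10-MAX carried a low-copy plasmid library with eight randomized operator positions between a constitutive promoter and sfGFP, with TetR constitutively expressed. Cells grew 5 h at 37 °C in LB with 50 µg/mL chloramphenicol, then 10^6 cells were FACS-sorted into 13 fluorescence bins, each Illumina-sequenced. Repression strength is the top bin index plus one minus the read-weighted mean bin, divided by the wild-type operator value. Three independent transformations; variants with ≥30 reads in all replicates and CV ≤0.5 were averaged.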

UniProt P04483, sequence (P04483 whole entry): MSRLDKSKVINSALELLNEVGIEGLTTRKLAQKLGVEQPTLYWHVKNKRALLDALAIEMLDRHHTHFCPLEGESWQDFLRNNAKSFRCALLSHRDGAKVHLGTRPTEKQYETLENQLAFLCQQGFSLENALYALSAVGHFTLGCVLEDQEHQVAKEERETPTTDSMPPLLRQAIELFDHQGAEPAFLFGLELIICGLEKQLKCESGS

| Sequence | TetR repression strength |
| --- | --- |
| TCCCGTCCAGTAAGGGAGA | 0.415 |
| TCCCCTATAGTGAGGGAGA | 0.176 |
| TCCCAGGCAGTGGGTGAGA | 0.095 |
| TCCCCTGGAGTAAGAGAGA | 0.239 |
| TCCCGTGAAGTGAGGGAGA | 0.313 |
| TCCCGTTGAGTCGCTGAGA | 0.146 |
| TCCCGTAGAGTTCGGGAGA | 0.158 |
| TCCCTGCTAGTACGGGAGA | 0.163 |
| TCCCTGGTAGTGTGAGAGA | 0.181 |
| TCCCATTCAGTACTAGAGA | 0.419 |
| TCCCTTCTAGTCGGTGAGA | 0.311 |
| TCCCCCTCAGTTGATGAGA | 0.262 |
| TCCCAACGAGTCGTAGAGA | 0.181 |
| TCCCAGGCAGTCCAGGAGA | 0.146 |
| TCCCGCTTAGTCAGTGAGA | 0.106 |
| TCCCTGATAGTCGCTGAGA | 0.234 |
| TCCCAATCAGTGACAGAGA | 0.723 |
| TCCCAGTAAGTAGCTGAGA | 0.19 |
| TCCCGGGCAGTGACGGAGA | 0.16 |
| TCCCTACTAGTTACAGAGA | 0.0592 |
| TCCCTATGAGTATGTGAGA | 0.199 |
| TCCCGCGGAGTTCACGAGA | 0.435 |
| TCCCAGTCAGTAGGAGAGA | 0.126 |
| TCCCACCGAGTTAGAGAGA | 0.334 |
| TCCCGGCAAGTTGCGGAGA | 0.272 |
| TCCCGGCTAGTATTGGAGA | 0.205 |

| Sequence | TetR repression strength |
| --- | --- |
| TCCCAGGCAGTATCGGAGA | 0.241 |
| TCCCGTAGAGTTTGGGAGA | 0.31 |
| TCCCTCAAAGTGATAGAGA | 0.399 |
| TCCCAGAGAGTCGTGGAGA | 0.333 |
| TCCCGAAAAGTCGGGGAGA | 0.22 |
| TCCCTGGGAGTAATGGAGA | 0.27 |
| TCCCGTGCAGTGTATGAGA | 0.0671 |
| TCCCGGTCAGTCCGTGAGA | 0.223 |
| TCCCGGAGAGTTGAGGAGA | 0.193 |
| TCCCACCGAGTGTGGGAGA | 0.0148 |
| TCCCCTCGAGTTGGCGAGA | 0.274 |
| TCCCGACTAGTAAGTGAGA | 0.173 |
| TCCCAACGAGTGACTGAGA | 0.196 |
| TCCCGTATAGTGTTGGAGA | 0.0518 |
| TCCCATGGAGTAAGCGAGA | 0.0864 |
| TCCCGCAAAGTTGCCGAGA | 0.0632 |
| TCCCGCTCAGTGGATGAGA | 0.273 |
| TCCCGAGTAGTCTTGGAGA | 0.0312 |
| TCCCCAAGAGTCATTGAGA | 0.24 |
| TCCCTGCCAGTCTGTGAGA | 0.21 |
| TCCCGAGCAGTTGCGGAGA | 0.167 |
| TCCCATGGAGTGACTGAGA | 0.231 |
| TCCCGAGCAGTTAATGAGA | 0.363 |
| TCCCCAAGAGTATAAGAGA | 0.301 |
| TCCCCTTCAGTCTTTGAGA | 0.483 |
| TCCCCGCGAGTGGAAGAGA | 0.222 |

| Sequence | TetR repression strength |
| --- | --- |
| TCCCGTGTAGTACCCGAGA | 0.0328 |
| TCCCGGTCAGTGGCCGAGA | 0.523 |
| TCCCCTTGAGTTCGCGAGA | 0.207 |
| TCCCATATAGTGGGGGAGA | 0.184 |
| TCCCGTGGAGTACGGGAGA | 0.196 |
| TCCCCAACAGTTATAGAGA | 0.245 |
| TCCCCCGGAGTTGGAGAGA | 0.246 |
| TCCCTTCGAGTTGGGGAGA | 0.151 |
| TCCCCGCCAGTTCGAGAGA | 0.0306 |
| TCCCGTACAGTGCCGGAGA | 0.198 |
| TCCCGGTGAGTTCGTGAGA | 0.511 |
| TCCCGCGCAGTAATGGAGA | 0.073 |
| TCCCTTCAAGTGGTTGAGA | 0.0288 |
| TCCCAATCAGTTCTTGAGA | 0.602 |
| TCCCGGAGAGTCTGGGAGA | 0.219 |
| TCCCCAAGAGTGCGTGAGA | 0.125 |
| TCCCACAGAGTGGGTGAGA | 0.129 |
| TCCCGCTTAGTTCCCGAGA | 0.355 |
| TCCCGGGTAGTTAACGAGA | 0.138 |
| TCCCCCGGAGTAATGGAGA | 0 |
| TCCCTGACAGTAGTAGAGA | 0.541 |
| TCCCCGATAGTGGCCGAGA | 0.0907 |
| TCCCTAAAAGTCAGTGAGA | 0.173 |
| TCCCGTGCAGTGGGCGAGA | 0.514 |
| TCCCCTGCAGTGTGTGAGA | 0.483 |
| TCCCGGTTAGTGGCTGAGA | 0.509 |

| Sequence | TetR repression strength |
| --- | --- |
| TCCCTTTGAGTGGCAGAGA | 0.52 |
| TCCCGTGCAGTGGATGAGA | 0.264 |
| TCCCCGGAAGTGTCTGAGA | 0.295 |
| TCCCAAAGAGTCGTGGAGA | 0.118 |
| TCCCATGGAGTAGCTGAGA | 0.282 |
| TCCCTAAGAGTGCTGGAGA | 0.768 |
| TCCCCTGTAGTTGGCGAGA | 0.196 |
| TCCCCGGTAGTGGCAGAGA | 0.182 |
| TCCCAAAGAGTTAAGGAGA | 0.124 |
| TCCCGTTAAGTTGTTGAGA | 0.181 |
| TCCCTCGGAGTGGGAGAGA | 0.217 |
| TCCCCGATAGTTAGAGAGA | 0.237 |
| TCCCTCGGAGTTTAAGAGA | 0.496 |
| TCCCGGATAGTTTAGGAGA | 0.295 |
| TCCCGTGGAGTACTAGAGA | 0.229 |
| TCCCCGCTAGTGTGCGAGA | 0.515 |
| TCCCTTATAGTACGAGAGA | 0.095 |
| TCCCCGGGAGTGCTAGAGA | 0.274 |
| TCCCCTTGAGTAACGGAGA | 0.272 |
| TCCCGTCAAGTTGGCGAGA | 0.138 |
| TCCCTACCAGTGATTGAGA | 0.511 |
| TCCCTATGAGTGGATGAGA | 0.315 |
| TCCCTGGGAGTCGTGGAGA | 0.229 |
| TCCCTGGCAGTCTCAGAGA | 0.404 |
